Data taken from PubChem BioAssay AID1569 (National Center for Advancing Translational Sciences (NCATS), 2009).
Inconclusive results, whose numbers are uncertain, are shown with a selection of clear calls. Potencies of inconclusive entries are doubtful fits and often do not repeat. The source made the active and inactive calls. The call rests on the fitted dose curve; in most records, active means well fitted inhibition curve with a large enough effect; inconclusive means small, poorly fitted or top-dose-only effect, or effect the other way, or another doubt; inactive means no such curve, though single readings can be large or run the other way.

Test: Confirmation Concentration-Response Assay for lipid storage modulators; further: nearly all actives have a fitted effect of over 80% in size;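 on activity change, negative = inhibition: -100% = full block of lipid deposition by 20 µM Triacsin C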
Conditions: Drosophila S3 cells, lipid droplet BODIPY/CellTracker ratio, 18-24 h; activity change, negative = inhibition: at 46.1 µM (top of the series)
Outline: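 Cells at 5,000/well received compound as a titration plus oleic acid (added as 400 uM solution) and were incubated 18–24 h at 24 °C. BODIPY 493/503 lipid signal and CellTracker Red cell count were read by 488-nm laser-scanning cytometry. Activity was normalised to 20 uM Triacsin C.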
Potency means the concentration at half of the fitted maximal effect; tags describe the fitted curve by direction and shape.

SMILES | Potency | activity change, negative = inhibition
CC(C)Cn1c(-c2cccs2)nc2ccccc21 | inconclusive: 5600 nM [activator, partial curve] | –
O=C(CSc1ncc(-c2ccc(F)cc2)n1Cc1ccco1)Nc1nccs1 | inconclusive: 15800 nM [activator, partial curve, poor fit] | –
CCOC(=O)C1CCN(C(=O)C2(NC(=O)NC3CCCCC3)CCCCC2)CC1 | active: 1410 nM | –
COc1ccc(CCNC(=O)CS(=O)(=O)c2cn(CC(=O)N3CCCC3)c3ccccc23)cc1OC | inconclusive: 11200 nM [activator, partial curve, poor fit] | –
O=C(c1ccco1)N1CCN(c2nc3ccccc3n3nnnc23)CC1 | inconclusive: 1580 nM [activator, full curve] | –
CCOC(=O)c1ccc(NC(=O)CN2CCN(c3ccccc3)CC2)cc1 | inconclusive: 12500 nM [activator, partial curve] | –
CCOc1ccccc1C(=O)NC(C)c1ccc2c(c1)OCO2 (centres undefined) | inconclusive: 888 nM [activator, full curve] | –
O=C1c2ccccc2C(=O)c2c(Nc3ccc(CCO)cc3)ccc(O)c21 | active: 25000 nM | –
CCCCn1c(SCC(=O)Nc2cc(C)on2)nc2ccccc2c1=O | inconclusive: 281 nM [activator, full curve] | –
CCOc1ccc(CCNC(=O)C2CCN(S(=O)(=O)N3CCC(C)CC3)CC2)cc1OCC | inconclusive: 9960 nM [activator, partial curve, poor fit] | –
COc1cc(-c2noc(-c3ccccc3C(=O)NCc3ccco3)n2)cc(OC)c1OC | inconclusive: 1770 nM [activator, full curve] | –
CCOc1ccc(S(=O)(=O)N2CCCCC2)cc1NC(=O)CC1OC(=O)c2ccccc21 (centres undefined) | inconclusive: 2500 nM [activator, partial curve] | –
Nc1ncn([C@H]2C[C@H](O)[C@@H](CO)O2)c(=O)n1 | inconclusive: 9960 nM [falling, single point] | –
CC(C)(C)c1cc[n+](C2=C([O-])c3ccccc3C(=O)/C2=N\S(=O)(=O)c2cccs2)cc1 | active: 28100 nM | –
O=C(NCC1(N2CCOCC2)CCCCC1)c1ccc(S(=O)(=O)Nc2ccccc2F)cc1 | active: 3970 nM | –
CCN(CC)S(=O)(=O)c1cccc(NC(=O)CNc2cccc(S(=O)(=O)N3CCCC3)c2)c1 | active: 1990 nM | –
CCOC1(c2ccccc2)CC1C(=O)N/N=C/c1cccc([N+](=O)[O-])c1 (centres undefined) | inconclusive: 9960 nM [activator, partial curve] | –
CCn1cc(C(=O)OCc2ccc(F)cc2)c(=O)c2ccc(C)nc21 | – | inconclusive: 251% [activator]
CC(O)CNc1ncnc2cc(-c3ccc(F)cc3)sc12 (centres undefined) | inconclusive: 4450 nM [activator, partial curve, poor fit] | –
COc1ccc(-c2nc(C)ncc2N=Nc2ccccc2)cc1 | active: 25000 nM | –

SMILES | Potency | activity change, negative = inhibition
COC(=O)c1[nH]c2cc(C)ccc2c1NC(=O)CN1CCN(c2ccccc2OC)CC1 | inconclusive: 4990 nM [activator, partial curve] | –
Cc1ccc(C)c(S(=O)(=O)N2CCN(CC(=O)Nc3sccc3C#N)CC2)c1 | active: 9960 nM | –
COc1ccc(OC)c(NC(=S)N2CCN(c3ccccn3)CC2)c1 | inconclusive: 2810 nM [activator, full curve] | –
CSCCC(NS(=O)(=O)c1ccc2c(c1)OCCO2)C(=O)N(C)Cc1ccc(C)cc1 (centres undefined) | – | inactive: -2.98%
CCOc1ccc(CCNC(=O)COC(=O)c2c(C)nn(-c3ccccc3)c2C)cc1OCC | active: 1580 nM | –
Cc1cccc2c1nc(-c1ccccc1)n1cnnc21 | inconclusive: 705 nM [activator, full curve] | –
CCN(CC)S(=O)(=O)c1ccc(N2CCCCC2)c(NC(=O)/C(C#N)=C/c2ccc(OC)cc2)c1 | inconclusive: 11200 nM [activator, partial curve] | –
COC(=O)c1ccc(Cl)c(NC(=O)CN(c2ccc3c(c2)OCO3)S(C)(=O)=O)c1 | inconclusive: 791 nM [activator, full curve, poor fit] | –
CCOc1ccccc1NC(=O)c1cccc(NC(=O)c2ccco2)c1 | inconclusive: 396 nM [activator, full curve] | –
O=C(Cn1nc(Cc2cccnc2)c2ccccc2c1=O)NCc1ccc2c(c1)OCO2 | inconclusive: 1410 nM [activator, full curve] | –
COc1ccc(C(=O)NCC(c2cccnc2)N2CCN(c3ccccc3OC)CC2)cc1OC (centres undefined) | inconclusive: 4990 nM [activator, partial curve] | –
CCOc1ccc(CCNC(=O)COC(=O)c2ccc(Cl)nc2)cc1OCC | – | inactive: -20.7%
COc1ccc(/C=N/NC(=O)c2nn(-c3ccc(C)c(C)c3)c(=O)c3ccccc23)cc1 | inconclusive: 5600 nM [activator, full curve] | –
Cc1ccc(Nc2cc(C)nc(-c3ccccc3O)n2)cc1 | inconclusive: 250 nM [activator, full curve] | –
COc1cccc(-n2nc(C(=O)Nc3ccc4c(c3)OCO4)c3ccccc3c2=O)c1 | inconclusive: 396 nM [activator, full curve] | –
CCCc1ccc(-c2csc(NC(=O)Cc3cccs3)n2)cc1 | active: 1580 nM | –
Cc1cc(C(=O)O[C@H]2[C@H](C)NS(=O)(=O)[C@H]3C[C@@H]4C=C[C@]23O4)cc([N+](=O)[O-])c1 | – | inactive: 15%
CCn1c2ccccc2c2cc(NC(=O)c3cccc(OC)c3)ccc21 | inconclusive: 888 nM [activator, full curve] | –
Brc1ccc(-c2nn3c(Cc4ccccc4)nnc3s2)o1 | inconclusive: 1410 nM [activator, full curve] | –
